Assay results taken from publication PMC4336329 (PLoS ONE, 2015).
In all, about 310,000 compounds went through this assay and about 14,000 (4.5%) showed an effect of 50% or more. Effects have a minus sign here. The list shows a part of the results.

The compounds below were run against human ether-à-go-go-related gene (hERG) potassium channel (human, UniProt Q12809) (assay: primary screen, population patch clamp on CHO cells stably expressing hERG).
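Also: peak tail current of the secondary pulse compared with the same well before compound.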

Sequence of human ether-à-go-go-related gene (hERG) potassium channel (Q12809 whole entry, looked up): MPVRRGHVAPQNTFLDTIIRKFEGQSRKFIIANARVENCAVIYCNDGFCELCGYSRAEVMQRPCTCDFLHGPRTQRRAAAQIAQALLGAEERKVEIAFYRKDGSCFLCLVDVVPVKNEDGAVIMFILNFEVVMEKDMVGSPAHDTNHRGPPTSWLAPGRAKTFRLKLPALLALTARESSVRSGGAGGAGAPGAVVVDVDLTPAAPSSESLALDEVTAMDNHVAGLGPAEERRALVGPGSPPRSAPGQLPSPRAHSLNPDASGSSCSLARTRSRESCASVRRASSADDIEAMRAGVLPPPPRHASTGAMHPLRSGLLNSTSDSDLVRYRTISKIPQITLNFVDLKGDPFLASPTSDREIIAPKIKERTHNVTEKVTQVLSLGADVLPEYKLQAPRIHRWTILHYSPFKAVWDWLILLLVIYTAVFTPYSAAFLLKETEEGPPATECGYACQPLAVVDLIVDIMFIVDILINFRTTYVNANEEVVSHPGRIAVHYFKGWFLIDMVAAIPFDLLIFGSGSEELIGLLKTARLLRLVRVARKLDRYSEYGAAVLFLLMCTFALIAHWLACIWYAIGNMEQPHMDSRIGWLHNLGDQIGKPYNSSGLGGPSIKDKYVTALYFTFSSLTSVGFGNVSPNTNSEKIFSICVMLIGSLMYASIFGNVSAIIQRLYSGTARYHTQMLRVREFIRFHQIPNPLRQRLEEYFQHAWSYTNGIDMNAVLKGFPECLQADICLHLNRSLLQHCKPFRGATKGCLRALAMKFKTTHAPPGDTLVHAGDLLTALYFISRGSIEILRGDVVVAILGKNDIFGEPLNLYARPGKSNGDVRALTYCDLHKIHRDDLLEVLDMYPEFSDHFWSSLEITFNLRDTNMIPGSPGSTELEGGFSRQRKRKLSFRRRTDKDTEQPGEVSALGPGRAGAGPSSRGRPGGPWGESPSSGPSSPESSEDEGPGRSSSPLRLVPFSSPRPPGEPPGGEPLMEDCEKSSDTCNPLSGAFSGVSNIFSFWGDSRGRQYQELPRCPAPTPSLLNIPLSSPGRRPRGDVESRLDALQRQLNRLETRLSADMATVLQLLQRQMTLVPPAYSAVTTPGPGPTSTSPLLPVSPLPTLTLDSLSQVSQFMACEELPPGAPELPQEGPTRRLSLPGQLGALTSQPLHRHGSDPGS

| Structure (SMILES) | hERG current change (%, negative = inhibition) at 10uM |
| --- | --- |
| O=[N+]([O-])c1ccc(O)c(/C=N/n2c(CO)nc3ccccc32)c1 | 6.36% |
| Cc1ccc(-c2nnc(SCC(=O)Nc3ccc(S(=O)(=O)N4CCCCCC4)cc3)o2)cc1 | -7.29% |
| O=C(CCCC(=O)N(CC(=O)NC1CCCCC1)Cc1ccccc1)Nc1ccccn1 | -6.57% |
| CCCCn1c(N)c(N(CCC(C)C)C(=O)c2ccc(COc3ccccc3)o2)c(=O)[nH]c1=O | -1.86% |
| CC(OC(=O)Cc1c(F)cccc1Cl)C(=O)NC1CCCCC1C (centres unmarked) | 10.5% |
| COc1ccc(CCC(=O)Nc2sccc2C#N)cc1 | 7.04% |
| CC1(C)CC(=O)C=C(NCc2cccc(C(F)(F)F)c2)C1 | -11.5% |
| Cc1c2cnn(CC(=O)O)c(=O)c2c(C)n1Cc1ccccc1 | 14.8% |
| Fc1ccc(C2CC(c3ccco3)n3ncnc3N2)cc1 (centres unmarked) | -14.4% |
| Cc1ccc(Cn2c(Sc3ncccn3)nc3c2c(=O)[nH]c(=O)n3C)cc1 | -5.24% |
| CCc1ccccc1NS(=O)(=O)c1ccc2[nH]cc(C(=O)NCc3ccco3)c(=O)c2c1 | 18.4% |
| O=C(CN(CCc1ccccc1)C(=O)c1csnn1)NCc1ccc(F)cc1 | -14.1% |
| COc1ccc(CN2C(=O)c3cccnc3C2Nc2cc(Cl)ccc2OC)cc1 (centres unmarked) | -10.6% |
| COc1ccccc1NC(=O)c1nc(S(=O)(=O)Cc2ccccc2)ncc1Cl | -5.2% |
| COc1cc(C(=O)N(C)CC2CCN(CCc3cccc(C(F)(F)F)c3)CC2)ccc1C | -78.8% |
| CC(=O)c1ccc(-n2nncc2-c2ccc([N+](=O)[O-])cc2)cc1 | -53.3% |
| Cc1ccc(O)c(CCc2ccc(O)cc2)n1.Cl | -0.196% |
| COc1ccc(-c2cc(C(F)(F)F)nc(SCC(=O)NCCCN3CCOCC3)n2)cc1 | -14% |
| CCOc1ccc2[nH]c(C)c(CN3CCN(CC)CC3)c(=O)c2c1 | -0.978% |

| Structure (SMILES) | hERG current change (%, negative = inhibition) at 10uM |
| --- | --- |
| Cc1noc(C)c1COC(=O)CCCOc1ccc(Cl)cc1Cl | 5.21% |
| NC(=S)N/N=C/c1ccc(C(F)(F)F)cc1 | 11% |
| O=C(N/N=C/c1cc2c(cc1Cl)OCO2)c1ccncc1 | 24.4% |
| CCN(CC)CC#CCC1(O)c2ccccc2-c2ccccc21.Cl | -9.76% |
| Cc1ccc(NC(=O)CSCC(=O)N=c2sccn2C)cc1 | 7.83% |
| NC(=O)c1nsc(C(=O)N(c2cccc(F)c2)C(C(=O)NC2CCCC2)c2ccc(O)cc2)c1N (centres unmarked) | 23% |
| CCC(=O)Nc1cccc(NC(=O)CSc2nnnn2C2CCCC2)c1 | -10.6% |
| O=C(NC1CCCc2ccccc21)c1c(F)cccc1Cl (centres unmarked) | 8.95% |
| Nc1ccc(NC(=O)c2ccccc2)c2c1C(=O)c1ccccc1C2=O | 2.65% |
| Cn1c(=O)c2c(nc(SCC(=O)c3ccc(F)cc3)n2C)n(C)c1=O | -3.64% |
| Cc1cc(C(=O)CSc2nc3ccccc3[nH]2)c(C)n1C | -17.7% |
| Cc1ccccc1CNC(=O)c1ccccc1N(C)S(=O)(=O)c1ccccc1 | 11.9% |
| Cc1ccc(NC(=O)Cn2nc(C(F)(F)F)c3c2CCC3)cc1 | 17.9% |
| O=C(O)CCc1ccc(S(=O)(=O)NCCc2ccccc2)cc1 | -2.31% |
| C[C@@H](C(=O)NCC1CC1)[C@H]1C[C@]1(C)[C@H](NC(=O)OCc1ccccc1)c1ccccc1 | -7.08% |
| O=C(C1CCN(S(=O)(=O)N2CCOCC2)CC1)N1CCN(c2ccc(F)cc2)CC1 | -30% |
| O=C(NC(Cc1c[nH]c2ccccc12)C(=O)N/N=C/c1cccc2ccccc12)c1cccs1 (centres unmarked) | 5.65% |
| COC(=O)CC1C(=O)NCCN1C(=O)Nc1ccccc1 (centres unmarked) | 3.75% |
| CCOC(=O)N1CCN(C(=O)C2CCCN(S(C)(=O)=O)C2)CC1 (centres unmarked) | 14.7% |

| Structure (SMILES) | hERG current change (%, negative = inhibition) at 10uM |
| --- | --- |
| Cc1cccc(/C=N/N2CCN(c3ccccc3)CC2)c1 | -4.38% |
| CC(C)C(=O)NCCc1nc2ccccc2n1CCc1ccccc1 | 8.25% |
| Cc1ccc(CN2CCNC(=O)C2CC(=O)NCC(F)(F)F)o1 (centres unmarked) | 14.1% |
| COc1cccc(NC(=O)C(OC(=O)c2ccc([N+](=O)[O-])o2)c2ccccc2)c1 (centres unmarked) | -12.5% |
| COCCNc1nnc(SCC(=O)NC(=O)c2ccccc2)s1 | 1.56% |
| Cc1ccc(S(=O)(=O)N2CCN(c3ccccc3)CC2)cc1C(N)=O | -45.9% |
| O=C(Cc1ccccc1)N1CCN(C/C=C/c2ccccc2)CC1 | -19.5% |
| CCOC(=O)C1CCN(C(=O)/C=C/c2ccc(OC)cc2)CC1 | -17.9% |
| O=C(C1=C[C@@H]2[C@H]3C(=O)N(c4cccc(Cl)c4)C(=O)[C@H]3[C@@H](C(=O)c3ccc(Cl)cc3)N2C=C1)c1ccccc1 | 9.73% |
| Cc1ccc(SCC(=O)NC(C)c2ccccc2)cc1 (centres unmarked) | 1.94% |
| N#C/C(=N\Nc1c(Cl)cccc1Cl)C(=O)NN | 8.57% |
| CCc1ccccc1NC(=O)CSc1n[nH]c(C)c1[N+](=O)[O-] | -8.12% |
| O=C(CCc1nc2ccccc2s1)Nc1ccccc1 | 16.3% |
| NNC(=O)CNC(=O)CNS(=O)(=O)c1ccccc1 | 16.2% |
| Cc1ccc2c(c1)NC(=O)C(CC(=O)NCCN(CC(C)C)CC(C)C)O2 (centres unmarked) | -24.7% |
| CCN(CC)CCCn1c(=S)[nH]c2cc(OC)c(OC)cc2c1=O | -2.6% |
| COc1cc(NC(=O)COC(=O)c2cnccn2)c(C)cc1[N+](=O)[O-] | -15.1% |
| C[C@H](NC(=O)N1CCn2c1nc1ccccc12)C(=O)NCCc1ccccc1 | -1.73% |
